The whole screen tested about 270,000 compounds, of which about 5,800 (2.1%) were called active. Inconclusive results (about 16%) are left out. Calls come from the whole dose curve; as a rule, active = well fitted inhibition curve with a large enough effect; inconclusive = small, poorly fitted or top-dose-only effect; inactive = flat fitted curve, though single readings scatter. The entries are a selection whose mix differs from that of the whole data set. More than one record can exist for a structure, and the calls need not agree.
target: Microtubule-associated protein tau (Homo sapiens) (UniProt P10636); assay: qHTS for Inhibitors of Tau Fibril Formation, Thioflavin T Binding; conditions: recombinant tau K18 P301L, heparin-induced fibrillization, ThT fluorescence; series mostly up to 57.4 µM; activity, negative = inhibition: at the top concentration; note: nearly all actives have a fitted effect of over 55% in size
How it was run: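 Using a mix of unlabeled (15 uM) and Alexa 594-labeled (0.24 uM) tau K18 P301L, heparin-triggered fibrillization over 6 hr at 37 C was scored by ThT fluorescence.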
% is set by controls: 0 for no effect and ±100 for the full control effect; potency is the fitted concentration of half-maximal effect.

Sequence of UniProt P10636 (P10636 whole entry, looked up): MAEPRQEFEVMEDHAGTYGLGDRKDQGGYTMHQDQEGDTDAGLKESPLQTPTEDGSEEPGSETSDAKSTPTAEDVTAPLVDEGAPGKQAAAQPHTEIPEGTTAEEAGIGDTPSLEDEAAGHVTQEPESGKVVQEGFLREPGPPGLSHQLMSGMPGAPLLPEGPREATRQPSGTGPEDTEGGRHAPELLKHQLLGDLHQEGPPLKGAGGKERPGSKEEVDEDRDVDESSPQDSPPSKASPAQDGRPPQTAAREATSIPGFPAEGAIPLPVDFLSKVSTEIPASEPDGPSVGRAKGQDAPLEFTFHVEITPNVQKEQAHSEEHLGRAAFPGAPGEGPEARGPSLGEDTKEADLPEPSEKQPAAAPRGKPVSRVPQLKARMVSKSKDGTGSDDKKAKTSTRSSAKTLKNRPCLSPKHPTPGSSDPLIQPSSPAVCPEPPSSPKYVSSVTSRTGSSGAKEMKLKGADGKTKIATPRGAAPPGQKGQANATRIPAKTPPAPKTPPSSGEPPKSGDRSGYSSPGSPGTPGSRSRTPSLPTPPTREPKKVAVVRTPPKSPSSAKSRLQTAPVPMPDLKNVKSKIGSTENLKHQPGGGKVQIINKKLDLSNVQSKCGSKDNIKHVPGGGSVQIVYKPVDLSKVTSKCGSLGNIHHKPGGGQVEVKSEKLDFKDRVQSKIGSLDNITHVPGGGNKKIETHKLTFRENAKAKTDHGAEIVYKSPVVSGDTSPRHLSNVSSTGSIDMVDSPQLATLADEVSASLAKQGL

Potency, inactive:
O=C(O)/C=C/c1ccc(O)c(O)c1, Nc1ncnc2c1ncn2[C@@H]1O[C@H](CO)[C@@H](O)[C@H]1O, COc1ccc2c(c1)O[C@H](c1ccc3c(c1)OCO3)[C@@H](OC(=O)Nc1cc(OC)c(OC)c(OC)c1)C2=O, C[C@]12CC[C@@H]3c4ccc(O)cc4CC[C@H]3[C@@H]1CC[C@@H]2O, Fc1ccc(C(c2ccc(F)cc2)N2CCN(C/C=C/c3ccccc3)CC2)cc1, COc1ccc(/C=C2\CCOC2=O)cc1, CC1(C)[C@@H]2CC[C@@]1(C)C(=O)C2, CC1=C(\C=C/C(C)=C/C=C\C(C)=C\C(=O)O)C(C)(C)CCC1, O=C(CCCN1CC=C(n2c(=O)[nH]c3ccccc32)CC1)c1ccc(F)cc1

Potency, active:
COC(=O)c1c(SCC(=O)Nc2ccccc2OC)[nH]c2ccccc2c1=O 14.1 µM, COn1c(C)c(C)c2c3nonc3ccc21 14.1 µM, Cc1cc(C(=O)Nc2ccc(N3CCCC3)c(Cl)c2)ccc1[N+](=O)[O-] 5.01 µM, Cc1cc([N+](=O)[O-])ccc1-c1ccc(C2Nc3ccccc3C(=O)N2O)o1 (stereo not given) 14.1 µM, CC[n+]1c(/C=C/C=C/N(C(C)=O)c2ccccc2)sc2cc(OC)ccc21 12.6 µM, CCOCCCNC1=C(Cl)C(=O)c2ccccc2C1=O 15.8 µM, CNC(=S)N/N=C/c1ccc(N2CCOCC2)s1 17.8 µM, COc1cc(OC)cc(C(=O)Nc2ccc3nc4c(c(Nc5ccc(OC)c(OC)c5)c3c2)CCCC4)c1 31.6 µM, CN1/C(=C\C(=S)NC(=O)c2cccc(Br)c2)C(C)(C)c2ccccc21 7.08 µM, CCOc1cc(/C=C/c2ccc3cccc([N+](=O)[O-])c3n2)ccc1O 14.1 µM, CCNc1ccc(Br)cc(C(=O)/C=C/c2ccc(Cl)cc2Cl)c1=O 15.8 µM, Cc1cccc(OCCNc2cc(N3CCN(CCO)CC3)ccc2[N+](=O)[O-])c1 28.2 µM, COc1cc([N+](=O)[O-])cc(/C=N\NC(=O)C2COc3ccccc3O2)c1O (stereo not given) 10 µM, CNc1ccc(/C=C2\CSc3ccccc3C2=O)cc1[N+](=O)[O-] 2.51 µM, NC(=S)N/N=C/c1coc2cc(Br)ccc2c1=O 15.8 µM, COc1ccccc1C1=Nc2cccc3cccc(c23)N1 11.2 µM, CSC(=NC#N)N1CCN(c2ccc([N+](=O)[O-])cc2)CC1 2 µM, O=C1CSC(=S)N1/N=C/c1ccc(O)c(O)c1O 3.55 µM, Cc1ccc(C(=O)N2CCN(c3ccc([N+](=O)[O-])c(NCc4cccnc4)c3)CC2)cc1 12.6 µM, COc1cc(/C=C/C(=O)c2ccc(C)c([N+](=O)[O-])c2)cc(OC)c1O 6.31 µM, CCCCN1/C(=C/c2ccc3ccccc3[n+]2CC)Sc2ccccc21 14.1 µM, Cc1ccccc1NC1=C/C(=N\S(=O)(=O)c2cccs2)c2ccccc2C1=O 8.91 µM, CC(=O)NC/C(C)=N\Nc1ccc([N+](=O)[O-])cc1 15.8 µM, CSc1nnc(C)c(/C=C/Nc2ccc(C)cc2)n1 5.01 µM, COc1ccc2c(c1OC)C(Cc1ccccc1)N1CCc3cc4c(cc3C1C2)OCO4 (stereo not given) 15.8 µM, Cc1ccc(CS(=O)(=O)c2ncc(Cl)c(C(=O)Nc3nc4ccc(F)cc4s3)n2)cc1 14.1 µM, CC1C/C(=C/c2ccncc2)C(=O)/C(=C/c2ccncc2)C1 (stereo not given) 8.91 µM, CC1CC(C)CN(C(=O)c2ccc3c(c2NCCO)C(=O)c2ccccc2C3=O)C1 (stereo not given) 17.8 µM, CC(=O)Nc1ccc(Nc2nc(C)c([N+](=O)[O-])c(N(C)c3ccccc3)n2)cc1 15.8 µM, Cc1ccc(NC(=O)c2ccc(N/N=C/c3cccc(O)c3)c([N+](=O)[O-])c2)cc1 1.58 µM, C=CC(C1=CC(=O)C=CC1=O)c1ccc(O)cc1 (stereo not given) 28.2 µM, Cc1ccccc1NC(=S)NC(NC(=O)COc1ccccc1)C(Cl)(Cl)Cl (stereo not given) 14.1 µM

activity, negative = inhibition, inactive:
O=C1NC(=Nc2ccccc2)S/C1=C/c1cccnc1 -9.88%, COC(=O)[C@H](Cc1ccccc1)NC(=O)[C@]1(C)C[C@H]1[C@H](NC(=O)OCc1ccccc1)c1ccccc1 -13.7%, Cc1occc1C(=O)N/N=C/C(Br)=C\c1ccccc1 -6.99%, CC1(OC(=O)CCc2ccccc2)C(=O)C=C2C=C(c3ccc(C#N)cc3)N(Cc3ccco3)C=C2C1=O (stereo not given) -14.9% [at 11.5 µM], CCn1c(COc2cccc(C)c2)nc2ccccc21 1.08%, CCO[C@H]1OC(C(N)=O)=C[C@@H](C2CCCCC2)[C@@H]1CCCO 3.54%, CC(C)[C@@H]1CC[C@@H](C)C[C@H]1OC(=O)C[n+]1cc(-c2ccc(Cl)cc2)n2c1CCCCC2 -12.1%, Cc1cccc(C(=O)N2CCC(=O)N([C@H](COCc3cccc(Cl)c3)Cc3ccccc3)CC2)c1 -19.7%, COCCCn1c(-c2ccc(S(=O)(=O)N3CCOCC3)cc2)csc1=Nc1ccccc1 -2.64%, CC(=O)n1cc([C@H]2C=C(C(=O)N3CCN(Cc4ccc5c(c4)OCO5)CC3)O[C@@H](OCc3ccc(CO)cc3)C2)c2ccccc21 -4.01%, CN1C(=O)C(O)(CC(=O)c2ccccc2O)c2cc(Br)ccc21 (stereo not given) -20.6%, O=C(C1=C[C@@H](c2csc3ccccc23)C[C@@H](OCCCCO)O1)N1CCN(Cc2ccc3c(c2)OCO3)CC1 -11.8%, Cc1cccc(C)c1Nc1c(-c2ccc(N3CCOCC3)cc2)nc2ncccn12 -1.5%, CCCCCCCCCCCCCCCC(O)C(N)CO (stereo not given) -13.3%, Cc1ccc2nc(N(CCCN(C)C)C(=O)c3ccco3)sc2c1 -5.21%, COc1cccc(-c2cc(=O)c3cc(NC(=O)c4ccc(N(C)C)cc4)ccc3[nH]2)c1 -6.41%, Cc1cccc(C(=O)N2CCC(=O)N([C@H](COCc3ccc(Cl)cc3)Cc3ccccc3)CC2)c1 -20.2%, COc1ccc(C2(CNC(=O)/C=C/c3ccco3)CCCC2)cc1OC -15.1%, C[C@@H](C(=O)NCCc1c[nH]c2ccccc12)[C@H]1C[C@]1(C)[C@H](NC(=O)OCc1ccccc1)c1ccccc1 -17.1%, O=C(Nc1cccc(F)c1)c1ccc(Br)o1 -4.5%, COc1cc(C2Oc3cc(C4Oc5cc(O)cc(O)c5C(=O)C4O)ccc3OC2CO)ccc1O (stereo not given) 4.29%, Cc1ccc(CNC(=O)[C@H](C)[C@H]2C[C@]2(C)[C@H](NC(=O)OCc2ccccc2)c2ccccc2)o1 -3.49%, CCCCC1=CC2=CC(=O)C(C)(OC(=O)CC)C(=O)C2=CN1Cc1ccco1 (stereo not given) -10.7% [at 11.5 µM], CCC/C=C(\CCC)C(NS(=O)(=O)c1ccc(C(F)(F)F)cc1)c1ccccc1 (stereo not given) -17.7%, CCOC(=O)c1cnc2ccc(OC)cc2c1NCCc1ccc(OC)c(OC)c1 -15.6%, CCN1/C(=C2/OC(=S)N(C)C2=O)Sc2ccccc21 -9.98%, O=C(CCCN1C(=O)/C(=C\c2cccs2)SC1=S)NNC(=O)c1cccnc1 -18.5%, C[C@@H](C(=O)NCc1ccccc1)[C@@H]1C[C@@]1(C)[C@@H](NC(=O)OCc1ccccc1)c1ccccc1 8.8%, CCC1=C(OC(=O)N(CC)CC)N2C(=O)OC(=NCCc3c[nH]c4ccccc34)[C@]2(C)[C@H]2C1=CC[C@H]1C(=O)NC(=O)[C@H]12 -13.2%, COc1ccc(C2=NC(c3ccccc3)CO2)cc1 (stereo not given) -15.3%, N#Cc1ccc(C23CC4(C2)[C@H](CN(CC2CCCCC2)[C@@H]4c2ccccc2)C3c2ccc(C(F)(F)F)cc2)cc1 (stereo not given in full) -0.341%, O=C(O)c1ccc(NCc2nc3ccccc3n2CCOc2ccccc2Cl)cc1 3.1%, CC(=O)SC1CC2=CC(=O)CC[C@@]2(C)C2CC[C@@]3(C)[C@@H](CC[C@@]34CCC(=O)O4)C12 (stereo not given in full) -5.71%, CC1=NN(Cc2ccccc2)C(=O)/C1=C/c1ccc(N(C)C)cc1 -8.5%, CCCC(=O)n1nc(-c2cccnc2)nc1NCc1ccc(OC)cc1 -16.2%, COc1ccc([C@@H]2C[C@H](c3ccccc3)Oc3cc(C)cc(C)c32)cc1 -0.535%, COc1cc2c(cc1O)CCC1C2CC[C@@]2(C)C1CC[C@@H]2O (stereo not given in full) -17%, Cc1cc(C)[n+]2n1C(=O)C(c1ccccc1)=C2[O-] -9.44%, COC(=O)c1ccc(NC(=O)CN2CCN(c3ccc(Cl)cc3)CC2)cc1 -14.8%, CC1(C)OC(c2ccccc2)=C/C(=C/C=N/NC(=O)c2ccncc2)O1 11.2%, COc1cccc(-c2nc(N3CCN(Cc4ccccc4)CC3)c3ccccc3n2)c1O -9.25%, COC(=O)CCC(=O)OC1(C)C(=O)C2=CN(CC3CC3)C(c3ccc(OC)cc3)=CC2=C(Br)C1=O (stereo not given) -4.11% [at 11.5 µM], CCCCC(C)(O)C/C=C/[C@H]1[C@H](O)CC(=O)[C@@H]1CCCCCCC(=O)OC (stereo not given in full) -4.63%, C=CCN1c2ccccc2[C@]23C[C@@H](C(=O)OC)N(C(=O)c4cccs4)C2=NC(C(=O)OC)=C(C(=O)OC)[C@H]13 1.61% [at 11.5 µM], Cc1ccccc1NC(=O)Cn1c(=O)n(Cc2ccccc2)c(=O)c2c(C)c(C)sc21 8.97%, CCOC(=O)CCn1nc(-c2ccc(C)cc2)c2ccccc2c1=O -4.2%, Cc1cc(NC(=O)Nc2cccc3ccccc23)no1 -15.7%, CC(=O)OC1C(=O)[C@@]2(C)C(O)CC3OC[C@]3(OC(C)=O)C2C(OC(=O)c2ccccc2)[C@]2(O)CC(OC(=O)C(O)C(NC(=O)c3ccccc3)c3ccccc3)C(C)=C1C2(C)C (stereo not given in full) -6.35%, COc1ccc2cc(CCC(C)=O)ccc2c1 -12.4%
